The list shows a part of the results. Sequences were assembled here from the parent chain. Inactive controls read about 0.05.
B1: TEV protease; numbered along this chain (parent)
chain: MGESLFKGPRDYNPISSSICHLTNESDGHTTSLYGIGFGPFIITNKHLFRRNNGTLVVQSLHGVFKVKDTTTLQQHLVDGRDMIIIRMPKDFPPFPQKLKFREPQREERICLVTTNFQTKSMSSMVSDTSCTFPSGDGIFWKHWIQTKDGQCGSPLVSTRDGFIVGIHSASNFTNTNNYFTSVPKNFMELLTNQEAQQWVSGWRLNADSVLWGGHKVFMVKPEEPFQPVKEATQL

Variants of: B1
Experiment: raw area under fraction-flipped curve 0-4 h after induction (AUC4h, not background-subtracted), DNA-recorder readout of cleavage of the substrate (dimensionless); higher = more cleavage of the substrate by the protease variant
Settings: temperature: 34 °C; time window: 0-4 h after rhamnose induction
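Further: Bxb1 expression induced with 0.2% (w/v) L-rhamnose at OD600 near 0.5, cultures sampled hourly, flipped fraction per protease–substrate barcode pair counted by paired-end Illumina sequencing.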

Variant: MGESLFKGPRDYNPISSSICHLTNESDGHTTSLYGIGFGPFIITNKHLFRRNNGTLVVQSLHGVFKVKDTTTLQQHLVDGRDMIIIRMPKDWPPFPQKLKFREPQREERICLVTTNFQTKSMSSMVSDTSCTFPSGDGIFWKHWIQTKDGQCGSPLVSTRDGFIVGIHSASNFTNTNNYFTSVPKNFMELLTNQEAQQWVSGWRLNADSVLWGGHKVFMVKPEEPFQPVKEATQL [F92W]
- area with substrate ENLYFES: 0.0692
- area with substrate ENLYFFS: 0.0829
- area with substrate ENLYFKS: 0.0524
- area with substrate ENLYFNS: 0.0773
- area with substrate ENLYFPS: 0.0552
- area with substrate ENLYFRS: 0.0774

Variant: MGESLFKGPRDYNPISSSICHLTNESDGHTTSLYGIGFGPFIITNKHLFRRNNGTLVVQSLHGVFKVKDTTTLQQHLVDGRDMIIIRMPKDFPPFPQKLKFREPQREERICLVTTNFQTKSMSSMVSDTSCTFPSGDGIFWKHWIQTKDGQCGSPLKSTRDGFIVGIHSASNFTNTNNYFTSVPKNFMELLTNQEAQQWVSGWRLNADSVLWGGHKVFMVKPEEPFQPVKEATQL [V157K]
- area with substrate ENLYFES: 0.0547
- area with substrate ENLYFFS: 0.0535
- area with substrate ENLYFIS: 0.0553
- area with substrate ENLYFNS: 0.0499
- area with substrate ENLYFPS: 0.0381
- area with substrate ENLYFWS: 0.041

Variant: MGESLFKGPRDYNPISSSICHLTNESDGHTTSLYGIGFGPFIITNKHLFRRNNGTLVVQSLHGVFKVKDTTTLQQHLVDGRDMIIIRMPKDFPPFPQKLKFREPQREERICLVTTNFQTKSMSSMVSDTSCTFPSGDGIFWKHWIQTKDGQCGSPLVSTRDEFIVGIHSASNFTNTNNYFTSVPKNFMELLTNQEAQQWVSGWRLNADSVLWGGHKVFMVKPEEPFQPVKEATQL [G162E]
- area with substrate ENLYFES: 0.051
- area with substrate ENLYFFS: 0.0673
- area with substrate ENLYFIS: 0.0564
- area with substrate ENLYFMS: 0.065
- area with substrate ENLYFNS: 0.0624
- area with substrate ENLYFPS: 0.0658
- area with substrate ENLYFTS: 0.0557
- area with substrate ENLYFWS: 0.0305

Variant: MGESLFKGPRDYNPISSSICHLTNESDGHTTSLYGIGFGPFIITNKHLFRRNNGTLVVQSLHGVFKVKDTTTLQQHLVDGRDMIIIRMPKDFPPFPQKLKFREPQREERICLVTTNFQTKSMSSMVSDTSATFPSGDGIFWKHWIQTKDGQCGSPLVSTRDGFIVGIHSASNFTNTNNYFTSVPKNFMELLTNQEAQQWVSGWRLNADSVLWGGHKVFMVKPEEPFQPVKEATQL [C131A]
- area with substrate ENLYFES: 0.0804
- area with substrate ENLYFIS: 0.069
- area with substrate ENLYFMS: 0.0787
- area with substrate ENLYFPS: 0.0623
- area with substrate ENLYFSS: 0.0709

Variant: MGESLFKGPRDYNPISSSICHLTNESDGHTTSLYGIGFGPFIITNKHLFRRNNGTLVVQSLHGVFKVKDTTTLQQHLVDGRDMIIIRMPKDFPPFPQKLKFREPQREERICLVTTNFQTKSMSSMVSDTSGTFPSGDGIFWKHWIQTKDGQCGSPLVSTRDGFIVGIHSASNFTNTNNYFTSVPKNFMELLTNQEAQQWVSGWRLNADSVLWGGHKVFMVKPEEPFQPVKEATQL [C131G]
- area with substrate ENLYFES: 0.0639
- area with substrate ENLYFFS: 0.0756
- area with substrate ENLYFMS: 0.0636
- area with substrate ENLYFPS: 0.0621
- area with substrate ENLYFSS: 0.0686
- area with substrate ENLYFVS: 0.077

Variant: MGESLFKGPRDYNPISSSICHLTNESDGHTTSLYGIGFGPFIITNKHLFRRNNGTLVVQSLHGVFKVKDTTTLQQHLVDGRDMIIIRMPKDFPPFPQKLKFREPQREERICLVTTNFQTKSMSSMVSDTSCTFPSGDGIFWKHWIQTKDGQCGSPLVQTRDGFIVGIHSASNFTNTNNYFTSVPKNFMELLTNQEAQQWVSGWRLNADSVLWGGHKVFMVKPEEPFQPVKEATQL [S158Q]
- area with substrate ENLYFES: 0.0584
- area with substrate ENLYFFS: 0.0655
- area with substrate ENLYFHS: 0.0667
- area with substrate ENLYFIS: 0.044
- area with substrate ENLYFMS: 0.0331
- area with substrate ENLYFNS: 0.0475
- area with substrate ENLYFPS: 0.0468
- area with substrate ENLYFTS: 0.0417
- area with substrate ENLYFWS: 0.0625
- area with substrate ENLYFYS: 0.0492

Variant: MGESLFKGPRDYNPISSSICHLTNESDGHTTSLYGIGFGPFIITNKHLFRRNNGTLVVQSLHGVFKVKDTTTLQQHLVDGRDMIIIRMPKDFPPFPQKLKFREPQREERICLVTTGFQTKSMSSMVSDTSCTFPSGDGIFWKHWIQTKDGQCGSPLVSTRDGFIVGIHSASNFTNTNNYFTSVPKNFMELLTNQEAQQWVSGWRLNADSVLWGGHKVFMVKPEEPFQPVKEATQL [N116G]
- area with substrate ENLYFES: 0.0865
- area with substrate ENLYFFS: 0.0702
- area with substrate ENLYFIS: 0.0594
- area with substrate ENLYFKS: 0.0706
- area with substrate ENLYFNS: 0.0642
- area with substrate ENLYFPS: 0.0658
- area with substrate ENLYFRS: 0.0563
- area with substrate ENLYFSS: 0.0587
- area with substrate ENLYFTS: 0.052
- area with substrate ENLYFVS: 0.0546
- area with substrate ENLYFWS: 0.0666
- area with substrate ENLYFYS: 0.0642

Variant: MGESLFKGPRDYNPISSSICHLTNESDGHTTSLYGIGFGPFIITNKHLFRRNNGTLVVQSLHGVFKVKDTTTLQQHLVDGRDMIIIRMPKDFPPFPQKLKFREPQREERICLVTTNFQTKSMSSMVSDTSCTFPSGDGIFWKHWIQTKDGQCGSPLVSTRDGFIVGIHSASNFTNTNNPFTSVPKNFMELLTNQEAQQWVSGWRLNADSVLWGGHKVFMVKPEEPFQPVKEATQL [Y179P]
- area with substrate ENLYFES: 0.058
- area with substrate ENLYFIS: 0.0448
- area with substrate ENLYFKS: 0.0551
- area with substrate ENLYFMS: 0.046
- area with substrate ENLYFNS: 0.069
- area with substrate ENLYFPS: 0.0579
- area with substrate ENLYFSS: 0.0558
- area with substrate ENLYFVS: 0.0493
- area with substrate ENLYFWS: 0.0609
- area with substrate ENLYFYS: 0.0625

Variant: MGESLFKGPRDYNPISSSICHLTNESDGHTTSLYGIGFGPFIITNKHLFRRNNGTLVVQSLHGVFKVKDTTTLQQHLVDGRDMIIIRMPKDFPPFPQKAKFREPQREERICLVTTNFQTKSMSSMVSDTSCTFPSGDGIFWKHWIQTKDGQCGSPLVSTRDGFIVGIHSASNFTNTNNYFTSVPKNFMELLTNQEAQQWVSGWRLNADSVLWGGHKVFMVKPEEPFQPVKEATQL [L99A]
- area with substrate ENLYFES: 0.0591
- area with substrate ENLYFFS: 0.0689
- area with substrate ENLYFGS: 0.0501
- area with substrate ENLYFIS: 0.0669
- area with substrate ENLYFMS: 0.0654
- area with substrate ENLYFNS: 0.0581
- area with substrate ENLYFPS: 0.0534
- area with substrate ENLYFRS: 0.0544
- area with substrate ENLYFSS: 0.0615
- area with substrate ENLYFTS: 0.0593
- area with substrate ENLYFWS: 0.0607

Variant: MGESLFKGPRDYNPISSSICHLTNESDGHTTSLYGIGFGPFIITNKHLFRRNNGTLVVQSLHGVFKVKDTTTLQQHLVDGRDMIIIRMPKDFPPFPQKLKFREPQREERICLVTTNFQTKSMSSMDSDTSCTFPSGDGIFWKHWIQTKDGQCGSPLVSTRDGFIVGIHSASNFTNTNNYFTSVPKNFMELLTNQEAQQWVSGWRLNADSVLWGGHKVFMVKPEEPFQPVKEATQL [V126D]
- area with substrate ENLYFES: 0.0394
- area with substrate ENLYFFS: 0.0558
- area with substrate ENLYFIS: 0.0551
- area with substrate ENLYFVS: 0.0703
